# Test results taken from the supplement of paper PMC8728848.
# The other results are listed elsewhere or left out.
# B1: PNA (Arachis hypogaea), P02872 (protein)
# chain: MKPFCVFLTFFLLLAASSKKVDSAETVSFNFNSFSEGNPAINFQGDVTVLSNGNIQLTNLNKVNSVGRVLYAMPVRIWSSATGNVASFLTSFSFEMKDIKDYDPADGIIFFIAPEDTQIPAGSIGGGTLGVSDTKGAGHFVGVEFDTYSNSEYNDPPTDHVGIDVNSVDSVKTVPWNSVSGAVVKVTVIYDSSTKTLSVAVTNDNGDITTIAQVVDLKAKLPERVKFGFSASGSLGGRQIHLIRSWSFTSTLITTTRRSIDNNEKKIMNMASA
# Assays:
# Test in all cases: glycan array binding signal (z-score within array); higher = stronger binding
# Conditions in all cases: glycan notation: IUPAC condensed, linker removed
# GlcA(b1-3)Gal(b1-4)Glc = biological target: GlcA(b1-3)Gal(b1-4)Glc
# Summary of the method: (§1)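 The Consortium for Functional Glycomics database supplied 3228 glycan arrays, of which those lacking an available protein sequence were dropped. The binding signal, a within-array Z-score, was averaged across arrays of the same protein sequence and across linkers. Negative scores can be read as non-binding.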
# [1] = biological target: GlcA(b1-3)Gal(b1-4)GlcNAc(b1-3)Gal(b1-4)Glc
# Summary of the method: as §1
# [2] = biological target: GlcA(b1-3)Gal(b1-4)GlcNAc(b1-3)Gal(b1-4)GlcNAc(b1-3)Gal(b1-4)Glc
# Summary of the method: as §1
# GlcA(b1-3)GlcNAc = biological target: GlcA(b1-3)GlcNAc
# Summary of the method: as §1
# [3] = biological target: GlcA(b1-3)GlcNAc(b1-4)GlcA(b1-3)GlcNAc
# Summary of the method: as §1
# [4] = biological target: GlcA(b1-3)GlcNAc(b1-4)GlcA(b1-3)GlcNAc(b1-4)GlcA(b1-3)GlcNAc(b1-4)GlcA(b1-3)GlcNAc(b1-4)GlcA(b1-3)GlcNAc(b1-4)GlcA(b1-3)GlcNAc(b1-4)GlcA(b1-3)GlcNAc
# Summary of the method: as §1
# [5] = biological target: GlcA(b1-4)GlcNAc(a1-4)GlcA(b1-4)2,5-Anhydro-Man
# Summary of the method: as §1
# [6] = biological target: GlcA(b1-4)GlcNAc(a1-4)GlcA(b1-4)GlcNAc(a1-4)GlcA(b1-4)GlcNAc(a1-4)GlcA(b1-4)2,5-Anhydro-Man
# Summary of the method: as §1
# GlcA(b1-6)Gal = biological target: GlcA(b1-6)Gal
# Summary of the method: as §1
# GlcA3S(b1-3)Gal = biological target: GlcA3S(b1-3)Gal
# Summary of the method: as §1
# GlcA3S(b1-3)Gal(b1-4)Glc = biological target: GlcA3S(b1-3)Gal(b1-4)Glc
# Summary of the method: as §1
# [7] = biological target: GlcA3S(b1-3)Gal(b1-4)GlcNAc(b1-2)Man
# Summary of the method: as §1
# [8] = biological target: GlcA3S(b1-3)Gal(b1-4)GlcNAc(b1-3)Gal(b1-4)Glc
# Summary of the method: as §1
# [9] = biological target: GlcA3S(b1-3)Gal(b1-4)GlcNAc(b1-3)Gal(b1-4)GlcNAc(b1-3)Gal(b1-4)Glc
# Summary of the method: as §1
# [10] = biological target: GlcNAc(a1-3)Gal(b1-4)GlcNAc
# Summary of the method: as §1
# GlcNAc(a1-4)Gal = biological target: GlcNAc(a1-4)Gal
# Summary of the method: as §1
# [11] = biological target: GlcNAc(a1-4)Gal(b1-3)GlcNAc
# Summary of the method: as §1
# [12] = biological target: GlcNAc(a1-4)Gal(b1-3)[Fuc(a1-2)]Gal
# Summary of the method: as §1
# [13] = biological target: GlcNAc(a1-4)Gal(b1-4)GalNAc
# Summary of the method: as §1
# [14] = biological target: GlcNAc(a1-4)Gal(b1-4)GlcNAc
# Summary of the method: as §1
# [15] = biological target: GlcNAc(a1-4)Gal(b1-4)GlcNAc(b1-3)Gal(b1-4)Glc
# Summary of the method: as §1
# [16] = biological target: GlcNAc(a1-4)Gal(b1-4)GlcNAc(b1-3)Gal(b1-4)GlcNAc
# Summary of the method: as §1
# [17] = biological target: GlcNAc(a1-4)Gal(b1-4)GlcNAc(b1-3)Gal(b1-4)GlcNAc(b1-3)Gal(b1-4)GlcNAc
# Summary of the method: as §1
# [18] = biological target: GlcNAc(a1-4)Gal(b1-4)GlcNAc(b1-3)Gal(b1-4)[Fuc(a1-3)]GlcNAc(b1-3)Gal(b1-4)[Fuc(a1-3)]GlcNAc
# Summary of the method: as §1
# [19] = biological target: GlcNAc(a1-6)Gal(b1-4)GlcNAc
# Summary of the method: as §1
# GlcNAc(b1-2)Fuc = biological target: GlcNAc(b1-2)Fuc
# Summary of the method: as §1
# [20] = biological target: GlcNAc(b1-2)Gal(b1-3)GalNAc
# Summary of the method: as §1
# GlcNAc(b1-2)Man = biological target: GlcNAc(b1-2)Man
# Summary of the method: as §1
# [21] = biological target: GlcNAc(b1-2)Man(a1-3)[GlcNAc(b1-2)Man(a1-6)]Man
# Summary of the method: as §1
# [22] = biological target: GlcNAc(b1-2)Man(a1-3)[GlcNAc(b1-2)Man(a1-6)]Man(b1-4)GlcNAc(b1-4)GlcNAc
# Summary of the method: as §1
# [23] = biological target: GlcNAc(b1-2)Man(a1-3)[GlcNAc(b1-2)Man(a1-6)]Man(b1-4)GlcNAc(b1-4)[Fuc(a1-6)]GlcNAc
# Summary of the method: as §1
# [24] = biological target: GlcNAc(b1-2)Man(a1-3)[GlcNAc(b1-2)Man(a1-6)][GlcNAc(b1-4)]Man(b1-4)GlcNAc(b1-4)GlcNAc
# Summary of the method: as §1
# [25] = biological target: GlcNAc(b1-2)Man(a1-3)[GlcNAc(b1-4)][GlcNAc(b1-2)Man(a1-6)]Man(b1-4)GlcNAc(b1-4)GlcNAc
# Summary of the method: as §1
# [26] = biological target: GlcNAc(b1-2)Man(a1-3)[GlcNAc(b1-4)][GlcNAc(b1-2)Man(a1-6)]Man(b1-4)GlcNAc(b1-4)[Fuc(a1-6)]GlcNAc
# Summary of the method: as §1
# [27] = biological target: GlcNAc(b1-2)Man(a1-3)[Man(a1-3)[Man(a1-6)]Man(a1-6)][GlcNAc(b1-4)]Man(b1-4)GlcNAc(b1-4)GlcNAc
# Summary of the method: as §1
# [28] = biological target: GlcNAc(b1-2)[GlcNAc(b1-4)]Man(a1-3)[GlcNAc(b1-2)Man(a1-6)]Man(b1-4)GlcNAc(b1-4)GlcNAc
# Summary of the method: as §1
# [29] = biological target: GlcNAc(b1-2)[GlcNAc(b1-4)]Man(a1-3)[GlcNAc(b1-2)Man(a1-6)][GlcNAc(b1-4)]Man(b1-4)GlcNAc(b1-4)GlcNAc
# Summary of the method: as §1
# [30] = biological target: GlcNAc(b1-2)[GlcNAc(b1-4)]Man(a1-3)[GlcNAc(b1-2)[GlcNAc(b1-4)][GlcNAc(b1-6)]Man(a1-6)][GlcNAc(b1-4)]Man(b1-4)GlcNAc(b1-4)GlcNAc
# Summary of the method: as §1
binder,measurement,setting,value
B1,glycan array binding signal (z-score),GlcA(b1-3)Gal(b1-4)Glc,-0.195
same,glycan array binding signal (z-score),[1],-0.195
same,glycan array binding signal (z-score),[2],-0.195
same,glycan array binding signal (z-score),GlcA(b1-3)GlcNAc,0.03
same,glycan array binding signal (z-score),[3],-0.195
same,glycan array binding signal (z-score),[4],-0.195
same,glycan array binding signal (z-score),[5],-0.195
same,glycan array binding signal (z-score),[6],-0.195
same,glycan array binding signal (z-score),GlcA(b1-6)Gal,-0.15
same,glycan array binding signal (z-score),GlcA3S(b1-3)Gal,-0.195
same,glycan array binding signal (z-score),GlcA3S(b1-3)Gal(b1-4)Glc,-0.195
same,glycan array binding signal (z-score),[7],-0.368
same,glycan array binding signal (z-score),[8],-0.211
same,glycan array binding signal (z-score),[9],-0.195
same,glycan array binding signal (z-score),[10],-0.046
same,glycan array binding signal (z-score),GlcNAc(a1-4)Gal,-0.195
same,glycan array binding signal (z-score),[11],-0.12
same,glycan array binding signal (z-score),[12],-0.195
same,glycan array binding signal (z-score),[13],-0.151
same,glycan array binding signal (z-score),[14],0.082
same,glycan array binding signal (z-score),[15],0.054
same,glycan array binding signal (z-score),[16],0.074
same,glycan array binding signal (z-score),[17],0.017
same,glycan array binding signal (z-score),[18],-0.052
same,glycan array binding signal (z-score),[19],-0.165
same,glycan array binding signal (z-score),GlcNAc(b1-2)Fuc,-0.195
same,glycan array binding signal (z-score),[20],-0.177
same,glycan array binding signal (z-score),GlcNAc(b1-2)Man,-0.195
same,glycan array binding signal (z-score),[21],-0.195
same,glycan array binding signal (z-score),[22],-0.143
same,glycan array binding signal (z-score),[23],-0.132
same,glycan array binding signal (z-score),[24],-0.185
same,glycan array binding signal (z-score),[25],-0.158
same,glycan array binding signal (z-score),[26],-0.196
same,glycan array binding signal (z-score),[27],-0.195
same,glycan array binding signal (z-score),[28],-0.034
same,glycan array binding signal (z-score),[29],0.022
same,glycan array binding signal (z-score),[30],-0.041
